# In all, about 33,000 sequences were measured (“E-score (-0.5 to 0.5)”: median about -0.011, highest 2% from about 0.28 on). This is one part of the list.
# Biological target: T1, Gcr1 (UniProt P07261)
# T1 sequence: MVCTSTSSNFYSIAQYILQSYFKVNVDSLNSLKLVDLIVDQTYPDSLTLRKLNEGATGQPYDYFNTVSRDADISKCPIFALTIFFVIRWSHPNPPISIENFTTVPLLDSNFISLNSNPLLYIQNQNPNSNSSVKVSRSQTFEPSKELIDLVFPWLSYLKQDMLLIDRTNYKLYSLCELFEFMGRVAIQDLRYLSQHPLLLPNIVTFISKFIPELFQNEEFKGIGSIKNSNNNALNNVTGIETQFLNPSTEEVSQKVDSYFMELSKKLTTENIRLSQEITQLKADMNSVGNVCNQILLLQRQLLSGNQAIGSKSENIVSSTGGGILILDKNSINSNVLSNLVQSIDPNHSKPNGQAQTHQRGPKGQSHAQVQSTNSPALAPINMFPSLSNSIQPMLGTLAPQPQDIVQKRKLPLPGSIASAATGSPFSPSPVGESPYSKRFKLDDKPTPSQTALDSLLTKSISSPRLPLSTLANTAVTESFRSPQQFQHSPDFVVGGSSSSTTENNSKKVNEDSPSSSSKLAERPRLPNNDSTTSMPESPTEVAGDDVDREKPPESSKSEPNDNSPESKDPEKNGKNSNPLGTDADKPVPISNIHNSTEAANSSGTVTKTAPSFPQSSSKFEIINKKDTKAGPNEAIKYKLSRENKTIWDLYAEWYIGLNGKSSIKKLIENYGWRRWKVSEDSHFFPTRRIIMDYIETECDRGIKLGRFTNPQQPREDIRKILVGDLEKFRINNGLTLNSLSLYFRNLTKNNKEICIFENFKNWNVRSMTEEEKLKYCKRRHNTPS
# Assay: PBM E-score (8-mer binding enrichment) (E-score (-0.5 to 0.5)); higher = stronger / more preferred TF binding; most listed sequences are background and not binding sites
# Conditions: protein concentration: 100 nM; construct: GST-full length
# Outline: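 Each ungapped eight-base word and its reverse complement, pooled, received an E-score from the Universal PBM Analysis Suite. Underlying scans, normalised with masliner, recorded fluorescent anti-GST bound to GST-tagged yeast transcription factors. These were applied at about 100-200 nM to universal all-10-mer Agilent arrays double-stranded by primer extension.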
row,Sequence,PBM E-score
1,GTCTTAAA,0.0994
2,ACCGCGCC,-0.0703
3,CACGAAAG,-0.159
4,AGTGAACC,-0.127
5,TATAGCAA,-0.0222
6,CAGAAGTC,0.133
7,CTTTAATC,0.0588
8,CAAGGGAA,-0.175
9,GACTGTCA,-0.154
10,GACACCAA,0.0543
11,CTGTCCCC,-0.063
12,ACCGGCCT,-0.153
13,AACCTTGA,-0.0838
14,CGCCGGAA,0.195
15,CAGCCAGC,-0.158
16,ATAAGACC,-0.0977
17,GGCGTCCC,0.362
18,ATAATCTA,0.0161
19,CGCCCTAA,0.189
20,ATGGTACG,-0.0261
21,GGTCTCAC,-0.209
22,CCCACGGA,-0.0507
23,AGATTAAT,0.0373
24,AAGGGTGT,-0.0439
25,TAGAGCTA,-0.222

row,Sequence,PBM E-score
1,AACGAGAG,-0.143
2,CTTTGTTC,-0.0308
3,AATACGGA,0.143
4,GGCGCCTA,0.385
5,CGAACTTC,0.136
6,CAAAGCGA,0.206
7,CCTTGCTC,-0.14
8,CATGATAG,0.00598
9,AATTCGTG,0.135
10,ATGCACAC,-0.234
11,CGATGTAC,-0.123
12,CCGTTCCG,-0.159
13,ACAAGCAA,-0.121
14,AAGGACGG,-0.211
15,CAGCCTGC,-0.276
16,CTAAGCGC,-0.0177
17,GTCTGAAA,0.103
18,AACCGTAA,0.0496
19,CAGATTAA,0.156
20,GAATAATC,0.139
21,CTCGGACC,-0.0591
22,GTCTACAA,-0.0669
23,AGACCCAG,-0.106
24,ACCCGCCA,-0.131
25,AGCTGCCG,0.289

row,Sequence,PBM E-score
1,ACCCCAGA,-0.0029
2,CTAACAAC,0.00805
3,GACTAAAA,0.0645
4,AACTTACC,-0.0965
5,ACGTATAG,-0.0327
6,ATGCGCAG,-0.0831
7,ATAGGATA,-0.0284
8,AGTCCCTA,-0.106
9,GGGTCAAA,-0.121
10,GTTTCCAA,0.11
11,CCAAACCC,-0.071
12,AACAGGCC,-0.0784
13,ATGTAATG,0.164
14,TTCAGAAA,0.12
15,CAAGCCTC,-0.0336
16,GGAGCAAA,-0.0648
17,CGGGGCGC,0.0571
18,ACGGCGGG,-0.0383
19,TAAAATCA,-0.196
20,CGACCGCC,-0.24
21,CGGGCACA,-0.0928
22,GCCGATAA,-0.197
23,CTCCAGGA,0.127
24,AACATGTT,0.106
25,CACGGAGA,-0.141

row,Sequence,PBM E-score
1,CGAATATA,0.00705
2,CGATCAGA,-0.117
3,AGTACTTG,-0.0446
4,TAATTGGA,0.206
5,AAGTTTCG,0.126
6,AAGTGATA,-0.0979
7,ACCTCAAT,0.092
8,GTCTGATA,0.0529
9,AGAAACCG,0.179
10,GCAGGGGC,-0.0501
11,CCCGACTA,0.0255
12,CGGATAAA,0.195
13,CGCTCTAC,-0.0891
14,ACTTTACA,0.0425
15,TATTGGAA,0.288
16,AGGCTCGG,-0.187
17,CAGCGCAC,-0.12
18,ATTGCCGG,-0.181
19,CTAAGGGC,0.0547
20,AGAGTGCC,-0.0496
21,GCAATTTA,0.189
22,CGGCGGAG,0.098
23,ATTTGACA,0.00188
24,CCATCCGA,-0.0665
25,ATAATCAA,0.0908

row,Sequence,PBM E-score
1,GTCTAATA,-0.021
2,TCGGGAAA,-0.0473
3,TATGATAA,-0.0065
4,AAACGCAT,-0.0338
5,ATGCGGCA,0.0412
6,CTCAGGGA,-0.0765
7,GCCAATCC,0.0418
8,CTCGACGA,-0.167
9,CCTGCTCG,-0.222
10,AAAGTAGA,0.194
11,GATCGCTA,-0.112
12,GCACTGGA,0.218
13,GTTGTGCA,-0.123
14,GTTTTTGA,0.0476
15,ACCCAATG,0.0138
16,ACGGCATC,0.2
17,ATGTACTC,-0.05
18,AACTTCGT,0.173
19,CCCACCCG,0.172
20,ACCTTATC,-0.161
21,GCCTTCTA,0.131
22,AGCCTCAA,0.0109
23,CCGGTGGC,0.0376
24,AAGACGGT,-0.187
25,CTCCGCTC,-0.148

row,Sequence,PBM E-score
1,ACACGGCA,-0.081
2,ATGCTTCC,0.0851
3,ATTACCCG,-0.00703
4,AAGGAATC,0.26
5,GTTAGCGA,-0.125
6,ACAGGCAG,0.252
7,ACACCTGA,-0.181
8,AAAGTCTG,-0.0992
9,CTCCGGTA,0.018
10,CATCAATG,0.0391
11,CTGTTCAC,-0.0145
12,CACTGACA,0.101
13,TCAGCTCA,-0.194
14,GCGCAGGA,-0.203
15,AATACCCT,-0.0814
16,CATACGAG,-0.0234
17,CTTCTATA,0.187
18,CCTTACCC,-0.292
19,AGTGAGGA,0.0864
20,AAAAGCCC,-0.194
21,GGGTTCTA,0.0354
22,AAAGCTTG,-0.281
23,TCCCCACA,-0.00673
24,GCAAAGTA,0.0465
25,AACCTGGG,-0.173

row,Sequence,PBM E-score
1,TTAACTAA,0.0488
2,AAGGTTGT,0.0394
3,CCCGCACA,0.00198
4,GCTTCCAA,0.443
5,AGCGGCGA,0.0745
6,GCTTTGCC,-0.214
7,AGTCAATA,-0.0401
8,AAATTCTA,-0.0194
9,ACGGATCA,-0.0362
10,CCGGTATA,0.191
11,TGCAAGCA,-0.227
12,CGTCATTC,-0.0627
13,AGTCGTCG,-0.091
14,AGATGATC,0.107
15,GTCTGCGA,-0.0873
16,CCATAGGG,-0.1
17,CTAAGTGC,-0.0458
18,ACTGCCCA,-0.083
19,CGTGAAAG,0.17
20,ATGCGCAA,0.0266
21,ATTATCCC,-0.152
22,ACCAGCTA,0.00494

# Source: the supplement of paper PMC3334620
